Here are results for 111 molecules from PubChem BioAssay AID1240 (Sanford-Burnham Center for Chemical Genomics, 2008).

Molecules are shown by their SMILES. In all, about 50,000 compounds went through this assay and about 800 (1.6%) showed an effect of 50% or more. Some of the results follow.

The experiment has as its target Bcl-2-like protein 10 (Homo sapiens) (UniProt Q9HD36). The experiment in a line: Phenotype converters, Bcl-B/TR3 peptide binding displacement, primary biochemical FP (AID 1240).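 Note: 0% = Bcl-B with tracer peptide and DMSO and 100% = tracer peptide lacking Bcl-B.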 Conditions: GST-Bcl-B / FITC-TR3 peptide fluorescence polarization; stronger effect = higher value; compound at 3.75 mg/L. A general note: In fluorescence polarisation assays a small probe gives low polarisation when free and higher when bound to something large.
Sequence of UniProt Q9HD36 (Q9HD36 whole entry, looked up): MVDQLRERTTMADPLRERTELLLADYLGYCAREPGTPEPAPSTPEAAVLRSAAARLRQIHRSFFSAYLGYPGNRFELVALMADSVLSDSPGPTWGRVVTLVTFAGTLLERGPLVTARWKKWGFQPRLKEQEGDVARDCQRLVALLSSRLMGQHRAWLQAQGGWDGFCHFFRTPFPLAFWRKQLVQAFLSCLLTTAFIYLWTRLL
For the molecule `CCOC(=O)c1c(NC(=O)C2CC2)sc(C(=O)Nc2ccccc2)c1C`, the displacement was -4.2%.
Then `CCOc1cc(C(=S)N2CCOCC2)ccc1OCc1ccccc1`, with 0.7%; and `COc1ccccc1NC(=O)c1cc([N+](=O)[O-])ccc1Br`, with 7.8%.
On to `O=C(CSc1ccccn1)Nc1ccccc1-c1ccccc1`, for which the displacement worked out at 2.3%.
Then `COc1ccc(C/C(N)=N/OC(=O)c2cccs2)cc1`, with 8.1%.
Then `O=C(NC(NC(=S)Nc1cc(Cl)ccc1Cl)C(Cl)(Cl)Cl)c1ccccc1Cl` (stereo unspecified), with 12.7%.
Then `Cc1ccccc1CN1CCN(C(=O)c2cccc(Cl)c2)CC1`, with 0.5%; and `COC(=O)CN(c1ccc(Cl)cc1C)S(=O)(=O)c1ccc(C)cc1`, with -3%.
`COc1cc(OC)c(OC)cc1CN1CCN(C(=O)c2ccc(OC)c(OC)c2)CC1`: the displacement is -3.3%.
To `CCOc1ccccc1NC(=O)c1ccc(N(Cc2ccc(Cl)cc2)S(C)(=O)=O)cc1` belongs 14.1%; to `CC(=O)NCCOc1ccc2oc3ccccc3c2c1`, 1.1%.
On to `O=C(/C=C/c1ccc(-c2cccc([N+](=O)[O-])c2)o1)c1ccco1`, for which the displacement was 79.3%.
To `O=C1NC(=S)S/C1=C/c1ccc(O)c(Br)c1` belongs -31.6%.
As to `O=C1/C(=C\c2ccccc2)SC(=S)N1NS(=O)(=O)c1ccccc1`, the displacement stood at 8.8%.
To `NS(=O)(=O)c1cccc(NC(=O)c2ccc(-c3ccccc3)cc2)c1` belongs 1.4%.
As to `O=C(CN(c1ccccc1)S(=O)(=O)c1ccccc1[N+](=O)[O-])NCCc1ccccc1`, the displacement came out at 11.3%.
Then `Cc1ccc2cc(C)c(NCCO)nc2c1`, with 7.2%.
Then `O=C(O)CN1C(=O)/C(=C\c2ccc(OCc3ccc(Cl)cc3)cc2)SC1=S`, with 8.4%.
For the molecule `CCOC(=O)C1SC(c2ccccc2)C(C#N)C1(O)c1ccccc1` (stereo unspecified), the displacement was -1.8%.
As to `CCc1ccc(-c2nc(-c3ccc(F)cc3)no2)cc1`, the displacement was -4.8%.
On to `COC(=O)c1sccc1NC(=O)/C=C/c1ccc(C(C)(C)C)cc1`, for which the displacement is -3.1%.
On to `COc1ccc(-c2nc(Cc3ccc(OC)c(OC)c3)no2)cc1`, for which the displacement is -8.7%.
For `CC(=O)n1cc(/C=C2\N=C(c3cccs3)OC2=O)c(-c2ccccc2)n1`, the displacement is -0.1%.
Then `O=C(Nc1ccccc1)c1ccccc1OCC(O)CN(Cc1ccccc1)Cc1ccccc1` (stereo unspecified), with -7.2%; and `COC(=O)CN(c1ccc(C)cc1)S(=O)(=O)c1ccccc1`, with 9.4%; and `c1ccc(C2=NN3COc4ccccc4C3C2)cc1` (stereo unspecified), with -1.1%.
Then `COc1ccc(/C=C/C(=O)c2cccc([N+](=O)[O-])c2)c(OC)c1`, with 1%.
For the molecule `O=C(Nc1ccc(SC(F)F)cc1)/C(=C/c1ccc(Cl)cc1)NC(=O)c1ccccc1`, the displacement was found to be 10.7%.
To `O=C(COc1ccc(I)cc1)N/N=C/c1ccc(-c2ccc([N+](=O)[O-])cc2)o1` belongs 59%.
For `CCC(=O)c1ccc(N2CCOCC2)c(F)c1`, the displacement is -18.9%.
To `CCC(C(=O)N1CCN(c2ccc(F)cc2)CC1)c1ccccc1` (stereo unspecified) belongs -7.7%; to `C=CCN1C(=O)/C(=C\c2cc(Br)cc(Cl)c2O)C(=O)NC1=S`, 7.9%.
Consider `COc1ccc(CC(=O)NNC(=O)COc2ccc(Cl)cc2)cc1OC`, for which the displacement was -6.4%.
`Cc1ccc(S(=O)(=O)N2CCSC2c2ccc(Br)cc2)cc1[N+](=O)[O-]` (stereo unspecified): the displacement turned out to be 10.6%.
For the molecule `COc1ccc(N2C(=O)c3ccc(OCCOc4ccc5c(c4)C(=O)N(c4ccc(OC)cc4)C5=O)cc3C2=O)cc1`, the displacement worked out at 7.3%.
Turning to `Cc1cccc(C)c1NC(=O)CSc1nnc(-c2ccco2)n1-c1ccccc1`, the displacement was 12%.
Then `C/C(=N\NC(=O)CNC(=O)C(c1ccccc1)c1ccccc1)c1ccccc1`, with 23.1%; and `COc1cc(NC(=O)c2cccnc2)c(OC)cc1Br`, with -7.8%; and `COc1cc(NC(=O)c2ccc(Cl)cc2Cl)ccc1NC(=O)c1cc2ccccc2o1`, with -2.6%.
Turning to `CCCC1=C(C(=O)OCC)C(c2ccc(CC)cc2)NC(=O)N1` (stereo unspecified), the displacement was -8.5%.
Regarding `COc1ccc(NC(=O)c2cc3ccccc3o2)cc1OC`, the displacement is -0.8%.
To `O=c1[nH]c(/C=C/c2ccc(N3CCOCC3)cc2)nc(O)c1[N+](=O)[O-]` belongs -23.7%.
To `CC(=O)N(C1=C(N2CCCCC2)C(=O)c2ccccc2C1=O)c1ccc(C)cc1` belongs 11.1%; to `Cc1cc(C)nc(/N=C(/N)Nc2cccc([N+](=O)[O-])c2)n1`, -2.1%; to `CCCCOc1ccc(NC(=O)C2CC=CCC2C(=O)O)cc1` (stereo unspecified), 3.2%.
Then `Cc1ccc(S(=O)(=O)N2CCN(C(=O)c3cccs3)CC2)cc1`, with -5%; and `COc1cccc2cc(C(=O)Nn3cnnc3)c(=O)oc12`, with -13%; and `Cc1c(C)c2ccc(OCC(=O)N(C)C)cc2oc1=O`, with 7.3%.
Consider `O=C(c1ccccc1)c1cc2c(cc1Cl)OCCO2`, for which the displacement turned out to be 5.6%.
Then `CCn1ccnc1C(O)c1cc(OC)ccc1OC` (stereo unspecified), with 3.9%.
Then `COc1cc(NC(=O)CCCOc2ccc(Cl)cc2Cl)c(OC)cc1Cl`, with 0.2%; and `O=C(c1ccccc1Br)N1CCN(c2ccc([N+](=O)[O-])cc2Cl)CC1`, with 11.1%.
As to `Cc1cc(C)cc(NC(=O)CN2C(=O)c3ccccc3C2=O)c1`, the displacement is -2.1%.
To `CCOC(=O)c1c(-c2ccc(Cl)cc2)csc1NC(=O)COc1ccc(OC)cc1` belongs 9.3%; to `O=C(N/N=C/c1cccnc1)c1cc(-c2ccc3ccccc3c2)n[nH]1`, -3.8%.
For `CCOc1ccc(Br)cc1/C=C(\C#N)c1nc2ccc(C)cc2[nH]1`, the displacement is 72.9%.
On to `Cc1ccc(-c2csc(/C(C#N)=C\c3ccc(C)s3)n2)cc1`, for which the displacement was -2.9%.
Then `Nc1ccc(C(c2ccccc2)c2ccc(N)cc2)cc1`, with -2.1%; and `Cc1ccc(N2C(=O)c3ccc4c5c(ccc(c35)C2=O)CC4)c(C)c1`, with 11.9%.
To `Cc1ccc(Cn2c3ccccc3n3cc(-c4ccc([N+](=O)[O-])cc4)nc23)cc1` belongs 23.1%; to `CC(C)C1S/C(=N/N=C/c2ccco2)NC1=O` (stereo unspecified), 46.5%; to `O=C(Cn1cc(C=C2C(=O)NC(=S)NC2=O)c2ccccc21)Nc1ccccc1`, 130%.
To `Cc1ccc(NC(=O)CSc2ccccn2)cc1` belongs 11.9%.
Turning to `CC(C)(C)c1ccc(C(=O)Nc2cccc(Br)c2)cc1`, the displacement is -12.4%.
Then `COc1cc(NC(=O)c2cccs2)c(OC)cc1Br`, with -59.2%; and `COC(=O)c1ccccc1NC(=O)COc1ccccc1`, with -11.9%.
As for `COc1ccc(-c2nnc(NC(=O)c3cccs3)s2)cc1OC`, the displacement is -5.7%.
Turning to `O=C(/C=C/c1cccc([N+](=O)[O-])c1)Nc1ccc(Cl)cn1`, the displacement came out at 6%.
To `COc1cc(C=O)ccc1Oc1nc(Nc2ccc(F)cc2F)nc(N2CCOCC2)n1` belongs 16.8%; to `C=C1CSc2nc(=O)c3c4c(sc3n21)CCCC4`, -13.2%.
Then `Cc1nccn1-c1c([N+](=O)[O-])c(=O)n(C)c2ccccc12`, with 7.2%; and `CC(=O)NCC1=C(NC(C)=O)C2CC1C(C)(C)C2C` (stereo unspecified), with -4.4%; and `O=C(Nc1ccc(OC(F)(F)F)cc1)c1cc2ccccc2o1`, with -3.9%.
Take `COc1ccc(NS(=O)(=O)c2cc(C(=O)c3ccc(Br)cc3)ccc2C)cc1`: the displacement was determined as 0.9%.
Take `Nc1nc(-c2ccccc2)c(N)c(-c2ccccc2)n1`: the displacement was determined as 6.9%.
Then `CCN(CC)CCNC(=O)c1ccc(NC(=S)NC(=O)c2cccnc2)cc1`, with 18.6%; and `CCOc1ccc(NC(=O)C2C3CCC(C3=C(C)C)C2C(=O)O)cc1` (stereo unspecified), with -4.5%.
Turning to `CC12CC3(C)CC(C)(C1)CC(C(=O)NCCO)(C2)C3`, the displacement was determined as 0.3%.
To `O=C(NC1CCS(=O)(=O)C1)/C(=C\c1ccco1)NC(=O)c1ccccc1` (stereo unspecified) belongs 3.9%; to `NC(=O)CSc1nc2ccc([N+](=O)[O-])cc2s1`, 15.8%; to `CC(=O)c1ccc(NC(=O)C2CC=C(C)CC2C(=O)O)cc1` (stereo unspecified), 1.8%.
With `COc1cccc(C(=O)Nc2cccc(-c3cn4ccccc4n3)c2)c1`, the displacement was determined as 8.5%.
`CCOC(=O)CNC(=O)c1ccc(Br)o1`: the displacement was found to be 3.4%.
Then `O=C(Nc1cccc(-c2nc3cc(Cl)ccc3o2)c1)c1ccc(Br)o1`, with -7.8%.
As to `O=C(Nc1ccc(-c2nc3ccccc3o2)c(O)c1)c1ccc(-c2ccc(Cl)cc2Cl)o1`, the displacement was 41.3%.
Regarding `CCOC(=O)c1c(-c2ccccc2)oc2cc(Br)c(OC(=O)CC)cc12`, the displacement worked out at 8.8%.
On to `Cc1ccc(C)c(NC(=O)C2CCC(C)(C(=O)O)C2(C)C)c1` (stereo unspecified), for which the displacement was determined as 5.9%.
Take `Cc1cc(/C=C2\C(=O)NC(=O)N(c3cccc(F)c3)C2=O)c(C)n1-c1cccc([N+](=O)[O-])c1`: the displacement is 12.3%.
Turning to `C=C(C)Cn1c(SCC(=O)NN)nnc1-c1ccc(Br)cc1`, the displacement is -13.1%.
`CC(=O)/C=C(\C)NC(=O)c1sc2ccccc2c1Cl`: the displacement turned out to be 0.3%.
Then `C=CCOc1c(Cl)cc(/C=C2\C(=O)NC(=O)N(c3ccc(C)cc3)C2=O)cc1OC`, with -2.1%.
With `O=C(Nc1cc(NC(=O)c2ccccc2)cc(C(=O)Nc2nccs2)c1)c1ccccc1`, the displacement was found to be 4.4%.
To `Cc1c(C(=O)Nc2ccccc2C(F)(F)F)cccc1[N+](=O)[O-]` belongs -9.3%; to `O=C1CC(c2ccccc2[N+](=O)[O-])c2ccccc2N1` (stereo unspecified), -5.1%.
Consider `O=C1C(=Cc2ccc(Cl)cc2)C(=O)c2ccccc21`, for which the displacement is 17.1%.
As to `O=C(NN=C(/C=C/c1ccccc1)/C=C/c1ccccc1)c1ccco1`, the displacement is -1.7%.
Turning to `CN1C(=O)/C(=C\c2cccc(OCCOc3ccc(Br)cc3)c2)SC1=S`, the displacement came to 35%.
To `Cc1csc(-c2coc3cc(O)cc(C)c3c2=O)n1` belongs 6.8%; to `O=C1N=c2ccccc2=C1c1sc(=O)n(-c2ccc(O)cc2)c1O`, -7.3%.
To `CCC(=O)Nc1sc(C)c(C)c1C(N)=O` belongs -13.1%; to `COc1ccccc1N1C(=O)NC(=O)/C(=C/c2ccc(OC)c3ccccc23)C1=O`, 5.3%.
Then `Cc1occc1C(=O)N/N=C/c1cccc(Cl)c1`, with 26.3%.
For the molecule `O=C(Nc1nnc(-c2ccc(Cl)cc2Cl)s1)c1ccccc1Br`, the displacement is -3.6%.
Then `Cc1ccc(C(=O)Nc2ccc(N(C)C)cc2)o1`, with 9.4%; and `COc1ccc(OC)c(Nc2ccc3ccccc3n2)c1`, with 33%; and `CCOc1ccc(NC(=O)/C=C/c2ccc(F)cc2)cc1`, with 12.3%.
Regarding `O=C(NCc1ccccn1)C(=O)Nc1ccc(Br)cc1`, the displacement is 6.8%.
Then `COC(=O)C1=CN(Cc2ccccc2)C=C(C(=O)OC)C1c1ccc(Cl)c(Cl)c1`, with 2.9%.
To `COc1ccc(C)cc1NC(=O)COc1ccc(C)cc1Br` belongs -6.4%; to `O=C1C2C3C=CC(CC3)C2C(=O)N1/N=C/c1ccc(I)o1` (stereo unspecified), 15.4%.
Then `Cc1ccccc1N1OC2C(=O)N(Cc3ccccc3)C(=O)C2C1c1ccc(F)cc1` (stereo unspecified), with -5.2%.
